# Measurements from ChEMBL document CHEMBL4888484, “Replenishing the malaria drug discovery pipeline: Screening and hit evaluation of the MMV Hit Generation Library 1 (HGL1) against asexual blood stage Plasmodium falciparum ,using a nano luciferase reporter read-out” (2022).
# Among all 150,000 compounds or so, about 540 (0.36%) showed an effect of 50% or more. The list shows a part of the results.
# System: Plasmodium falciparum
# Assay: Primary screen in NF54 nanoGlo assay, in single point, at 2uM, 72h; a lower Z score goes with more inhibition
# Type: functional, Erythrocyte
# Conditions: timepoint 72 hour
Compound,% Inhibition [%],Z score
CC(CC1CCCC1)C(=O)NCC1CCN(C)C(=O)C1 (stereo unspecified),-13,1.37
O=C1NC(=O)C2(CCN(C(=O)C3CC3c3ccccc3)CC2)N1 (stereo unspecified),-5,0.7
CC[C@]1(O)CCN(C(=O)c2cnc(N3CCOCC3)nc2)C[C@@H]1O,-8,0.75
Cc1cc(C)cc(OC(=O)Cn2c(=O)sc3cccc(Cl)c32)c1,3,-0.45
CS(=O)(=O)N[C@@H]1CC[C@H]2CCOc3ccccc3C(=O)N3CCN(C4Cc5ccccc5C4)C[C@H]3C(=O)NC[C@H]1O2,14,-1.63
Cc1nnc([C@H]2OCC[C@H]2CNc2cnc3cc(Cl)ccc3n2)[nH]1,-1,0.2
Cc1cc(C(=O)N2CCn3c(n[nH]c3=O)[C@H]2c2ccccc2)c(C)o1,-5,0.85
O=C(Cn1c2c(c(=O)n1-c1ccccc1)Cc1cc(Br)ccc1O2)NC1CCCC1,-8,0.81
O=C(N[C@H](C(=O)O)C1CCCCC1)c1ccc(-c2cc[nH]n2)s1,-6,1.05
CO[C@H]1COCC[C@@H]1NC(=O)c1nc(=O)[nH]c2ccccc12,-4,0.48
COc1ccc(-c2noc(N(C)CC(=O)Nc3ccccc3OC)n2)cc1,-8,1.51
CC(C)n1nccc1NC(=O)N1CCCC[C@@H]1CCN(C)C,5,-0.79
Cc1nc2ccnn2cc1C(=O)Nc1cccc2c1OC(C)(C)CC2,-6,1.23
COC(=O)c1ccc(S(=O)(=O)NC2(c3ccccc3)CCC2)cn1,-10,0.94
COc1nc(NC[C@H]2CCCN2C(C)C)ncc1F,64,-12.06
Cc1nc(C(=O)Nc2ccc3c(c2)OCCO3)co1,-11,1.88
Cc1noc(C)c1CC(=O)N[C@@](C)(CO)C1CCCCC1,-12,1.26
CO[C@@]12CC[C@@H](OCC3CC3)C[C@@H]1N(C(=O)c1csc(C(C)C)n1)CC2,-2,0.34
CCN(CC)[C@@H](CNC(=O)CNC(=O)C1CCCC1)c1ccco1,7,-0.86
O=S(=O)(c1ccccc1)N1CCN(Cc2noc(-c3ccco3)n2)CC1,-2,0.29
COc1cccc(OC2CN(c3cccc(C(=O)O)n3)C2)c1,-14,1.52

Compound,% Inhibition [%],Z score
COCc1noc(C[C@H]2CN(C(=O)c3c(C)cc(C)[nH]c3=O)CCO2)n1,2,-0.34
Cc1cc(CN(C)c2nc(C(F)(F)F)nc3[nH]cnc23)no1,-10,1.28
c1ccc2c(Oc3ccc4c(c3)CCC4)ncnc2c1,35,-3.96
O=S(=O)(c1ccccc1F)N1CCC[C@](CC2CC2)(c2noc(C3CCOCC3)n2)C1,-6,1.04
COc1cccc(CC(=O)N2CCC(F)(C(=O)N3CCOCC3)CC2)c1,-14,1.88
CS(=O)(=O)N(CC(=O)NC1CC1)C1CCCCC1,-8,0.98
COCN1C(=O)CCc2cc(NCc3cncs3)ccc21,2,-0.4
COc1ccc(C[C@@]2(CCC(=O)N3CCN(c4cccc(C)c4C)CC3)CCC(=O)N2)c(F)c1,-4,0.59
CN(C)S(=O)(=O)NCC#CCOc1ccccc1C(N)=O,-13,1.69
CC[C@H](CO)NC(=O)NCc1c(Cl)cccc1OC,-22,2.53
Cc1ccc(CC(=O)N(CCS(=O)(=O)N2CCNCC2)C2CCCCC2)cc1,-6,0.67
Cc1ccc([C@@H]2c3c(N)ncnc3Oc3ccc4ccccc4c32)cc1,-5,0.57
O=C(c1ncccc1O)N1C[C@H]2CC[C@@H](C1)N(Cc1ccccc1)C2,-10,1.29
Cc1ccc(CNCc2nonc2C)cc1C,-3,0.39
CC(C)(C)c1ccc(-c2c(N3CCCC3)cn[nH]c2=O)cc1,-5,0.87
CCn1cnc2cc(-c3noc(CNC(=O)Cc4ccccc4)n3)ccc21,-14,1.82
Cc1cc(C)c(OC(=O)Cn2cnc3c2c(=O)n(C)c(=O)n3C)c(C)c1,-13,2.46
Cc1n[nH]c(=O)nc1Nc1cccc2cccnc12,5,-0.65
CCc1sc(-c2nnc(CN[C@H](c3ccc(F)cc3)c3cccs3)o2)cc1C,-9,1.16
O=C(N1CCCN(C(=O)C2(O)CCCC2)CC1)C1(O)CCCC1,-4,0.42
Cc1cc(Br)oc1C(=O)Nc1nc(-c2ccc3c(c2)OCCO3)cs1,-5,0.69

Compound,% Inhibition [%],Z score
Cc1nc(C)n(C2CN(S(=O)(=O)Cc3cc(C#N)ccc3F)C2)n1,3,-0.45
Cc1nn(-c2ncc(C(F)(F)F)cc2Cl)c(=O)n1-c1ccc(OCc2ccccc2)cc1,41,-5.31
Cc1ccc(O[C@@H](C)CNC(=O)Nc2cccn(C)c2=O)cc1,-13,1.2
Cc1noc(-c2ccsc2NC(=O)c2ccccc2C)n1,-12,2.26
Cc1ccccc1N1CC[C@@H](C(=O)N2CCN(Cc3ccccc3)CC2)C1=O,-13,1.59
Cc1c(F)cccc1CN1CC[C@]2(O)CCN(C(=O)C3CCC3)C[C@@H]2C1,-5,1.07
COc1ccc(S(=O)(=O)NCc2nc3cccnc3n2C2CC2)cc1,-9,1.41
O=C(c1ccc2nc(-c3ccccc3)cn2c1)N1CCOC[C@@H]1CO,-11,2.03
O=C(CC1CCN(C(=O)c2ccc3nc(-c4ccccc4)oc3c2)CC1)NC1CCCCC1,-17,2
C[C@H]1C(=O)NCCN1C(=O)C1=CCCCO1,-7,1.08
CC(C)(C)NS(=O)(=O)Cc1ccc(Br)cc1,-10,1.39
Fc1cccc(Cl)c1CNCc1cccnc1-n1cccn1,-2,0.48
Cc1ccc(C(N)=O)c(NCC[C@H](O)CO)n1,-3,0.56
CC(=O)N1C[C@H](NC(=O)c2ccc(-c3ccc(C)o3)cc2)[C@@H](C2CC2)C1,-4,0.7
CN(Cc1cccnc1)c1nccc(N2CCN[C@@H]3CS(=O)(=O)C[C@@H]32)n1,-11,1.45
CCOc1ccc(N2C[C@@H](C(=O)NC3CCCC3)CC2=O)cc1,4,-0.65
CC(C)C(=O)Nc1nc(CCc2c[nH]c3ccccc23)n[nH]1,-5,0.68
O=C(c1cc(C2CC2)no1)N1C[C@@H]2CC[C@H]1CN(C1Cc3ccccc3C1)C2,-5,0.87
Cc1cc(-c2nc(C(=O)N3CCCNC(=O)[C@@H]3C)co2)ccn1,-2,0.31
O=C(c1ncc2ccccc2c1O)N1CCO[C@@H](CF)C1,-4,0.56
CN(CCc1ccccn1)[C@H]1CCN(Cc2ccco2)C[C@@H]1O,-2,0.34

Compound,% Inhibition [%],Z score
Cc1nc(Oc2ccc3c(c2)CCC3)sc1C(=O)O,29,-3.25
COc1ccc(CN2C[C@@H](C(=O)Nc3ccc4[nH]ccc4c3)CC2=O)cc1OC,0,0.08
O=C(Nc1cccs1)NC1CCC2OCCOC2C1 (stereo unspecified),-10,1.86
O=C([C@H]1CCc2cn[nH]c2C1)N1CCC(c2ccc(F)c(F)c2)CC1,-16,1.86
CO[C@@H](CNC(=O)c1ccccc1C)c1cc2ccccc2o1,-10,1.11
COc1ccccc1/N=C(\NC(=O)c1ccc(C)cc1)N1CCN(C2CCCCC2)CC1,-5,0.97
CC[C@@H](CO)N(Cc1cccnc1)C(=O)c1n[nH]c(C)c1Cl,-6,1.17
Cc1cccc2c1nc1n2[C@@H](CNCc2c[nH]c3ccccc23)COC1,1,-0.2
Cc1ccc(NC(=O)C2CCN(c3c(-n4c(C)ccc4C)c(C)nn3-c3ccccc3)CC2)cc1,4,-0.54
CCC[C@H](O)CN(CCC(C)C)Cc1cccn1Cc1ccccc1C,5,-0.46
O=C(Nc1cccc2cccnc12)c1ccc2c(c1)CCCC2,3,-0.34
CC(C)n1cc2c(n1)C[C@@H](NC(=O)c1ccc3cnccc3c1)CC2,-1,0.15
Cc1ncc(C(=O)N(C[C@H]2CCCO2)c2ccncc2)c(C)n1,-5,0.7
COc1c(C)cnc(CN(CC(N)=O)C2CCCC2)c1C,-4,0.78
COc1ccccc1CNc1cn[nH]c(=O)n1,-4,0.6
N#Cc1cccc(N2CCN(Cc3cc4ccccc4[nH]3)C[C@H](O)C2)n1,2,-0.33
COc1ccc(-c2c(-c3ccc(C)c(C)c3)[nH]c3c2c(=O)[nH]c(=O)n3C)cc1,-4,0.68
COCCn1c(-c2ccnn2C)nnc1N1C[C@H]2CC=CC[C@H]2C1,-3,0.47
O=C1COc2c(cccc2NC(=O)c2ccoc2Cl)N1,1,-0.2
COc1cc([C@@H]2NC(=O)c3sc(=S)n(-c4ccccc4)c3N2)ccc1OCc1ccccc1,-6,0.61
